The other results are listed elsewhere or left out. Most values come without repeats; read them as rough.
The compounds below were run on UACC62 (assay: cell count relative to DMSO control; melanoma cells; higher = more viable cells). Conditions: library dose: standard library concentration; 72 h.
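Note: cells treated in 1,536-well plates, then fixed and DAPI-stained, with nuclei counted from automated high-throughput microscope images.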

Row | SMILES | cell count
1 | CC1(C)CCC(c2ccc(Cl)cc2)=C(CN2CCN(c3ccc(C(=O)NS(=O)(=O)c4ccc(N[C@H](CCN5CCOCC5)CSc5ccccc5)c(S(=O)(=O)C(F)(F)F)c4)cc3)CC2)C1 + COc1cc(N2CCC(N3CCN(C)CC3)CC2)ccc1Nc1ncc(Cl)c(Nc2ccccc2S(=O)(=O)C(C)C)n1 [NVP-TAE684] (first compound 2 µM, partner dose 0.4 µM) | 64.8%
2 | CC1(C)CCC(c2ccc(Cl)cc2)=C(CN2CCN(c3ccc(C(=O)NS(=O)(=O)c4ccc(N[C@H](CCN5CCOCC5)CSc5ccccc5)c(S(=O)(=O)C(F)(F)F)c4)cc3)CC2)C1 + Cn1cc(/C=C2\C(=O)Nc3cccnc32)c2ccccc21 [GW441756] (first compound 2 µM, partner dose 2 µM) | 58.9%
3 | O=C(/C=C/c1cccnc1)NCCCCC1CCN(C(=O)c2ccccc2)CC1 + COc1cc2ncnc(Nc3ccc(Oc4ccccc4)cc3)c2cc1OC [SrcI1] (first compound 0.05 µM, partner dose 10 µM) | 58.5%
4 | O=C(/C=C/c1cccnc1)NCCCCC1CCN(C(=O)c2ccccc2)CC1 + O=S(=O)(c1ccccc1)N(CC(F)(F)F)c1ccc(C(O)(C(F)(F)F)C(F)(F)F)cc1 [T0901317] (first compound 0.05 µM, partner dose 7 µM) | 83.8%
5 | CC1(C)CCC(c2ccc(Cl)cc2)=C(CN2CCN(c3ccc(C(=O)NS(=O)(=O)c4ccc(N[C@H](CCN5CCOCC5)CSc5ccccc5)c(S(=O)(=O)C(F)(F)F)c4)cc3)CC2)C1 + COC(=O)c1sccc1S(=O)(=O)Nc1ccc(Nc2ccccc2)cc1OC [GSK0660] (first compound 2 µM, partner dose 5 µM) | 100%
6 | CC1(C)CCC(c2ccc(Cl)cc2)=C(CN2CCN(c3ccc(C(=O)NS(=O)(=O)c4ccc(N[C@H](CCN5CCOCC5)CSc5ccccc5)c(S(=O)(=O)C(F)(F)F)c4)cc3)CC2)C1 + c1cc(-c2cnn3cc(-c4ccc(OCCN5CCCCC5)cc4)cnc23)ccn1 [Dorsomorphin] (first compound 2 µM, partner dose 2 µM) | 69.9%
7 | Cc1ccc(Nc2nccc(N(C)c3ccc4c(C)n(C)nc4c3)n2)cc1S(N)(=O)=O [Pazopanib] + CO[C@@H]1[C@H](N(C)C(=O)c2ccccc2)C[C@H]2O[C@]1(C)n1c3ccccc3c3c4c(c5c6ccccc6n2c5c31)C(=O)NC4 [Midostaurin] (first compound 2 µM, partner dose 0.4 µM) | 55.4%
8 | O=C(/C=C/c1cccnc1)NCCCCC1CCN(C(=O)c2ccccc2)CC1 + CO[C@@H]1[C@H](N(C)C(=O)c2ccccc2)C[C@H]2O[C@]1(C)n1c3ccccc3c3c4c(c5c6ccccc6n2c5c31)C(=O)NC4 [Midostaurin] (first compound 0.05 µM, partner dose 0.4 µM) | 64.3%
9 | Cc1ccc(Nc2nccc(N(C)c3ccc4c(C)n(C)nc4c3)n2)cc1S(N)(=O)=O [Pazopanib] + Oc1nc(-c2ccc(C(F)(F)F)cc2)nc2c1CSCC2 [XAV939] (first compound 2 µM, partner dose 10 µM) | 77.6%
10 | CC1(C)CCC(c2ccc(Cl)cc2)=C(CN2CCN(c3ccc(C(=O)NS(=O)(=O)c4ccc(N[C@H](CCN5CCOCC5)CSc5ccccc5)c(S(=O)(=O)C(F)(F)F)c4)cc3)CC2)C1 + Cc1ccc(Nc2nccc(N(C)c3ccc4c(C)n(C)nc4c3)n2)cc1S(N)(=O)=O [Pazopanib] (first compound 2 µM, partner dose 2 µM) | 60.5%
11 | CC1(C)CCC(c2ccc(Cl)cc2)=C(CN2CCN(c3ccc(C(=O)NS(=O)(=O)c4ccc(N[C@H](CCN5CCOCC5)CSc5ccccc5)c(S(=O)(=O)C(F)(F)F)c4)cc3)CC2)C1 + CCCCCCCCCCCC1=C(O)C(=O)C=C(O)C1=O [Embelin] (first compound 2 µM, partner dose 6 µM) | 51.4%
12 | Cc1ccc(Nc2nccc(N(C)c3ccc4c(C)n(C)nc4c3)n2)cc1S(N)(=O)=O [Pazopanib] + NCC(=O)Nc1ccc(-n2nc(C(F)(F)F)cc2-c2ccc3c(ccc4ccccc43)c2)cc1 [OSU03012] (first compound 2 µM, partner dose 5 µM) | 49.3%

Source: the supplement of paper PMC4604168 (melanoma cell lines)
